The values that follow come from the RNAGym collection of RNA variant scans (doi:10.7554/elife.90254).

To fix the notation:
B1: LINE1-mini (parent)
chain: GGCAGAGCUCAACACAGCGUGGCAAAGUGGCUGUGGCUAGACUGCC

Read counts are not given, so values of variants with three or more changes are uncertain.

This data set covers variants of B1. Put plainly: self-cleavage, relative activity (ratio to wild type); higher = more cleavage; in vitro, sequencing; the parent is a self-cleaving ribozyme.
Consider GGGAGAGCUCAACACAGCGUGCCAGACUGGCUGUGGCUAGACUGCC, for which the self-cleavage worked out at 0.09.
For the variant GGGAGAGCUCAACACAGCGUGGUAAAGUAGCUGUGGCUAGACUGCC, the self-cleavage was 0.27.
As to GGGAGAGCUCAACACAGCCUGGCAAAGUGACUGUGGCUAGACUGCC, the self-cleavage was determined as 0.07.
With GGGAUAGCUCAACACAGCGUGGCAAAGUGGCUGUGGCUCGACUGCC the figure was 0.05.
For GGGAGAGCUCAACACAGCGCGGCAAAGUUGCUGUUGCAACACUGCC, the self-cleavage is 0.08.
As to GGGAGAGCUCAACACAGCGUGACCAAGUGACUGUGGCUACACUGCC, the self-cleavage is 0.09.
For GGGAGAGCUCAACACAACGUGGCAAAAUGGCUGUGGCUAGACUGCA, the self-cleavage came to 0.05.
With GGGAGAGCUCAACACAGCGGGGCAAAGUGGCUGUGGGUAGACUGCC the figure was 0.01; with GGGACAGCUCAAAACAGCGGGGCAAAGUGGCUGGGGCUAGACUGCC, 0.04; with GGGAGAGCUCAACAUAGCGUGGCAAAAUGCCGGUGGCUAGGCUGCC, 0.06.
As for GGGACAGCUCAACACAGGGUGGCAAAGAGGCUUUGGCUAGACUGCC, the self-cleavage is 0.06.
In the case of GGGAUAGCUAAACACAGCUUGGCAAAGUGGGUGUGGCUAGACUGCC, the self-cleavage was 0.03.
For the variant GGGAGAGCUCAACACAGCGUGUCAAAGUGGCUGUGGCUAUACUGCC, the self-cleavage was 0.32.
With GGGAGAGCUCAACACAGCCUCGCAAAGUGGUUGUGGCUAGACUGCC the figure was 0.04.
GGGAGAGCUCAACACAGCGUGGCAAAGUGUCUGUGGAUAGACUGCC: the self-cleavage was found to be 0.93.
Turning to GGGAUAGCUGAACACAGCGUGGGAAAAUGGCUGUGGCUCGACUGCC, the self-cleavage was found to be 0.
As to GGGAGAGCUCAACACAGAGUGGCAAAGUGGCUGUGGCUAGACUGGC, the self-cleavage is 0.1.
For GGGAUAGCUCAACACAGCGAGGCAAAGUGGCUGUGGCUAGACUGGC, the self-cleavage turned out to be 0.18.
With GGGAGAGCUCAACACAGCGUGGGAAAAUGGCUGUGACUAGACUACC the figure was 1.17.
With GGGAGAGCUCAACACAGCGGCGCAAAGUGGCUGUGGCUAGACUGCC the figure was 0.03.
Turning to GGGAGAGCUCAACACAGCGUGGCAAAGUAGUUGGGGGUAGACUGCC, the self-cleavage came out at 0.08.
As for GGGAGACCUCUACACAGCGUGGCAAAGUGGCUGUGGCUAGACUGCC, the self-cleavage came to 0.02.
Turning to GGGAGAACUCAACACAGCGUGGCAAAGUGGCAGUUGCUAGACUGCC, the self-cleavage stood at 0.39.
For the variant GGGAGAGCUCAACACAGCGUGGAAAAAUGGCUGUGGCUAGACUGCC, the self-cleavage was found to be 0.95.
For GGGAGAGCACAACACAGAGUGGCAAAGUGGCUGUGGCUAGACUGCC, the self-cleavage was 0.13.
Turning to GGGAGAGCUCAACACAGCGUGGCAAACUGCCUGUGGCUAGACUGCC, the self-cleavage amounted to 1.31.
Take GGGAGAGCUCAACACAGCGUCGCAAAGUGGGUGUGGCUAGACUGCC: the self-cleavage came to 0.06.
With GGGAGAGCUCAACACAGCGGGGCAAAGUGGCUGUGGCUACACUGCC the figure was 0.05; with GGGAGAUCUCAACACAGCGUGGCAAAGUGGCUGUGCCUAGACUGCC, 0.62.
As to GGGAGAGCUCAACACAUCGCGGCAAAGUAGCUGUGGUUAGACUGCC, the self-cleavage was found to be 0.48.
With GGGAGAGCUCAACACAGAGUGGCAAUGCGGCUGUGGCUAGACUGUC, the self-cleavage is 0.02.
As for GGGAGAGCUCAACACAGCGUGGAAGAGUGACUGAGGUUAGACUACC, the self-cleavage was 0.
Regarding GGGAGAGCUCAACAGUGCGUGGGAAAGUGGCUGUGGCUAUACUGCC, the self-cleavage came out at 0.02.
Regarding GGGAGAGCUCAACACAACGUCGCAAAGUGGUUGUGGCUAGACUGCC, the self-cleavage came out at 0.06.
Take GGGAGAGCAAAACACAGCGUGGCUAAGUGGCUGUGGCUAGACUGCC: the self-cleavage amounted to 0.03.
On to GGGAGAGCACAACACAGCGUGGCAAACUGGCUGUGGCUAGACUGCC, for which the self-cleavage worked out at 0.13.
For the variant GGGAGAGCUCAACACACCGUGGCAAAGUGGCUGUGGCUAGACUGGC, the self-cleavage was determined as 0.32.
For GGGAGAGCUCAACACAGCGUGUCAAAGUGGCUGUCGCUGGACUGCC, the self-cleavage is 0.04.
With GGGAGAGCUCAACACAGCGUGGCAAAGUGGCAGAGGCUAGACUGCC the figure was 0.04.
For GGGAAAGCUCAACACAGCGUGGCAAAGUGGCUGAGGCUAGACUGCC, the self-cleavage came out at 0.06.
Turning to GGGAGAAGUCAACAGAGCGUGGCAUAUUGGCUGUGGCUAGACUGCC, the self-cleavage stood at 0.13.
Take GGGACAGCUCAACACAGCUUGGCAAAGUGGCUGUGGCUAGACUGCC: the self-cleavage was 0.79.
As for GGGAGAGCUCAACACAGUGUGGCUAAGUGGCUGUGGCUAGACUGCC, the self-cleavage was 0.15.
As to GGGAGAGCUCAACACAUCGUGGCAAAGUGGCUGUUGCUAGACAGCC, the self-cleavage is 0.08.
Turning to GGGAGAGCACCAUACAGCGUGGCAAAGUGUUUGUGGCUAGACUGCC, the self-cleavage stood at 0.02.
Turning to GGGAGAGCACAACACAGCGUGGCAUAGUGGCUGUGGGUAGACUCCU, the self-cleavage came out at 0.02.
Regarding GGGAGAGCUCAACAAAGCGUGGCAAAGUGGCUGUGACUAAACUGCC, the self-cleavage is 0.06.
For GGGAGAGCUCAACACAGCGUGGCAAAGUGGCUGUGGCCAGACUGCA, the self-cleavage is 0.16.
In the case of GGGAGAGCUCAACAUAGCGUGGCAGAGUGGCCGUUCCUAGGCUGCC, the self-cleavage amounted to 0.06.
Regarding GGGAGACCUCUACACAGCGUGGAGAAGUGGCUGUGGCUAAACUGCC, the self-cleavage came out at 0.01.
Regarding GGGAGAUAUCAACACAGCGUGGCAAGGUGGCUGUGGCUAGACUGCC, the self-cleavage was 0.97.
Turning to GGGAGAGCUCAACAUAGCGUGGCAAAGUGGCUGUGGCUAGAGUACA, the self-cleavage was determined as 0.14.
As for GGGAGAGCACAACACAGCUUGGCAAAGUGGCUGUGGCUAGACUGCC, the self-cleavage is 0.17.
As for GGGAGAGCUCAACACAGCGUUGCAACGGGGCUGUGGCUAGACUGCC, the self-cleavage worked out at 0.15.
In the case of GGGAGAGCUCAACACAGCGUGGCAAAGUGCCUGUGGAUAGACUGCC, the self-cleavage amounted to 0.13.
As for GGGAGAGCUCAACACAGCGUGGCAAAGCCGCUGAGUCGAGACUGCC, the self-cleavage came to 0.06.
